# Source: the antibiotic and cytotoxicity screens of Wong et al. (2023)
# The list shows a part of the results.
# Tests used:
# HSkMC = human skeletal muscle cells; assay: cytotoxicity call (relative viability < 0.9); settings: 10 µM
# HepG2 = assay: cytotoxicity call (relative viability < 0.9); settings: 10 µM
# S. aureus RN4220 = assay: growth inhibition call (relative growth <= 0.2); settings: 50 µM
SMILES,cytotoxicity call (HSkMC),cytotoxicity call (HepG2),growth inhibition call (S. aureus RN4220)
CCCCCCc1nc(-c2ccc(-c3ccc(Cl)c(Cl)c3)o2)cc2c1[Si](C(C)C)(C(C)C)O[C@H]2c1ccccc1,inactive,inactive,inactive
COc1c2ccoc2cc2oc(=O)ccc12,inactive,inactive,inactive
NC(=O)NCC#Cc1ccc2c(c1)[C@]1(C(=O)N2)[C@H](C(=O)Nc2nc3ccccc3s2)[C@H]2C(=O)O[C@H](c3ccccc3)[C@H](c3ccccc3)N2[C@@H]1c1ccccc1OCCO,inactive,inactive,inactive
CC(C)NC(=O)N(C)C[C@H]1Oc2c(NS(=O)(=O)c3cn(C)cn3)cccc2C(=O)N([C@@H](C)CO)C[C@@H]1C,inactive,inactive,inactive
Cc1ccc(S(=O)(=O)Nc2ccc3c(c2)C(=O)N([C@H](C)CO)C[C@H](C)[C@H](CN(C)C(=O)c2ccccc2)OCCCC[C@H](C)O3)cc1,inactive,inactive,inactive
C[C@@H]1CN([C@H](C)CO)C(=O)Cc2cc(NC(=O)C3CC3)ccc2O[C@@H]1CN(C)C(=O)Nc1ccc(F)cc1,inactive,inactive,inactive
NCC1CCN(S(=O)(=O)C2CC2)CC1,inactive,inactive,inactive
CCC[C@@H](O)C#Cc1cnc2c(c1)C(=O)N([C@H](C)CO)C[C@H](C)[C@H](CN(C)S(=O)(=O)c1ccc(F)cc1)O2,inactive,inactive,inactive
C[C@@H]1CN([C@@H](C)CO)C(=O)c2cc(NC(=O)Cc3ccccc3)ccc2O[C@@H]1CN(C)S(=O)(=O)c1cn(C)cn1,inactive,inactive,inactive
C[C@@H]1CN([C@H](C)CO)C(=O)c2cccc(NS(=O)(=O)c3cccs3)c2O[C@H]1CN(C)Cc1ccc(-c2ccccc2)cc1,inactive,inactive,inactive
C[C@@H]1CCCCO[C@H](CN(C)Cc2ccc(C(=O)Nc3ccccc3N)cc2)[C@@H](C)CN([C@@H](C)CO)C(=O)c2cc(NC(=O)Nc3ccc(C(F)(F)F)cc3)ccc2O1,inactive,inactive,inactive
Cc1ccc(S(=O)(=O)Nc2ccc3c(c2)C(=O)N([C@@H](C)CO)C[C@@H](C)[C@@H](CN(C)C(=O)Nc2ccc(C(F)(F)F)cc2)O3)cc1,inactive,inactive,inactive
C[C@H](CO)N1C[C@H](C)[C@@H](CN(C)Cc2ccc(C(F)(F)F)cc2)Oc2ccc(NC(=O)Nc3ccc4c(c3)OCO4)cc2C1=O,inactive,inactive,inactive
C[C@@H]1CCCCO[C@@H](CN(C)C(=O)c2ccncc2)[C@H](C)CN([C@@H](C)CO)C(=O)c2cc(NC(=O)C3CCCCC3)ccc2O1,inactive,inactive,inactive
Cc1noc(C)c1NC(=O)N(C)C[C@@H]1Oc2ccc(NC(=O)Nc3ccc(C(F)(F)F)cc3)cc2CC(=O)N([C@H](C)CO)C[C@H]1C,inactive,inactive,inactive
C[C@@H]1CCCCO[C@@H](CN(C)CC2CCCCC2)[C@@H](C)CN([C@@H](C)CO)C(=O)c2cc(NC(=O)Nc3ccccc3)ccc2O1,inactive,active,inactive
C[C@H]1CN([C@@H](C)CO)C(=O)c2c(c3ccccc3n2C)-c2ccccc2CO[C@H]1CN(C)Cc1ccc(C(F)(F)F)cc1,inactive,inactive,inactive
CC12C=CC(=O)C=C1CCC1C2C(O)CC2(C)C1CCC2(O)C(=O)COP(=O)([O-])[O-].[Na+].[Na+] (stereo not given),inactive,inactive,inactive
C[C@@H]1CN([C@H](C)CO)C(=O)c2cc(NC(=O)C3CC3)ccc2O[C@@H]1CN(C)Cc1ccc(C(=O)O)cc1,inactive,inactive,inactive
C[C@H](CO)N1C[C@H](C)[C@H](CN(C)CC2CC2)Oc2ccc(NS(=O)(=O)c3cn(C)cn3)cc2CC1=O,inactive,inactive,inactive
COc1ccc(-c2cc(=O)c3c(O)cc(O)c(-c4cc(-c5cc(=O)c6c(O)cc(O)cc6o5)ccc4OC)c3o2)cc1,inactive,inactive,inactive
C[C@@H]1CN([C@H](C)CO)C(=O)c2cc(NC(=O)c3ccncc3)ccc2O[C@@H]1CN(C)S(=O)(=O)c1ccccc1,inactive,inactive,inactive
COc1cc2ccc(=O)oc2c(OC)c1OC,inactive,inactive,inactive
O=C1NCC(=O)N2[C@@H]1C[C@@H](C(=O)O)[C@H]2c1ccc(O)cc1,inactive,inactive,inactive
O=C1N[C@@H](CC(=O)N2CCN(CCc3ccncc3)CC2)C(=O)Nc2ccccc21,inactive,inactive,inactive
